Measured values reported in patent US20220125947A1.
Where a chain is given by its changes, count along the chain named. Blank lines part the entries; values can stand above or below the binder they belong to.

Assays:
[1] = biological target: T cell receptor (TCR) Vγ9 (TRGV9) (human), Q99603; test: cell-based or functional assay
[2] = biological target: TCR Vδ2 (TRDV2) on γδ T cells in PBMCs (human), A0JD36; test: cell-based or functional assay
Chain of TCR Vδ2 (TRDV2) on γδ T cells in PBMCs (human), A0JD36 (A0JD36 20-115, stated change not applied): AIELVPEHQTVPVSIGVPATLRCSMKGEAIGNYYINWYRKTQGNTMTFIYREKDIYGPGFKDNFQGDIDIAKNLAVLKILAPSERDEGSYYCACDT

Chain of T cell receptor (TCR) Vγ9 (TRGV9) (human), Q99603 (Q99603 21-122): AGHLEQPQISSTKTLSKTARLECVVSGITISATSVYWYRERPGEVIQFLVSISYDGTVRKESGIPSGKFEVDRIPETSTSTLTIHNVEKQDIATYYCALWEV

B3: VG9B106 (antibody, human IgG1, kappa)
heavy: EVQLVQSGAEVKKPGASVKVSCKASGYTFTGYYLHWVRQAPGQGLEWVGWINPSSGDTDYAQTFQGRVTMTRDTSISTAYMELSRLRSDDTAVYYCANELGIGVFDYWGQGTLVTVSS[human IgG1 constant region omitted here]
light: DIVMTQSPDSLAVSLGERATINCKSSQSVLYSSNNKNYLGWYQQKPGQPPKLLIYWASTRESGVPDRFSGSGSGTDFTLTISSLQAEDVAVYFCQQYYSIPYTFGQGTKVDIKRTVAAPSVFIFPPSDEQLKSGTASVVCLLNNFYPREAKVQWKVDNALQSGNSQESVTEQDSKDSTYSLSSTLTLSKADYEKHKVYACEVTHQGLSSPVTKSFNRGEC
CD25+ (Vg9+ cells), flow staining [2]: 12.2%
CD71+ (Vg9+ cells), flow staining [2]: 73.9%
Granzyme B (Luminex, supernatant) [2]: 287
IFNγ (Luminex, supernatant) [2]: 44
IL6 (Luminex, supernatant) [2]: 39
TNFα (Luminex, supernatant) [2]: 119
Vg9 T cell %, flow staining [2]: 3.5%

B4: VG9B27 (antibody, human IgG1, kappa)
heavy: EVQLVQSGAEVKKPGSSVKVSCKASGGTFSSYVISWVRQAPGQGLEWMGGILPILSTANYAQKFQGRVTITADKSTSTAYMELSSLRSEDTAVYYCARAHDYYYGMDVWGQGTMVTVSS[human IgG1 constant region omitted here]
light: [about 100 residues omitted here][about 120 residues omitted here]
CD25+ (Vg9+ cells), flow staining [2]: 35.4%
CD71+ (Vg9+ cells), flow staining [2]: 92.6%
Granzyme B (Luminex, supernatant) [2]: 4120
IFNγ (Luminex, supernatant) [2]: 1490
IL6 (Luminex, supernatant) [2]: 274
TNFα (Luminex, supernatant) [2]: 3540
Vg9 T cell %, flow staining [2]: 4%

The next lines start with the values.

CD25+ (Vg9+ cells) [1]: 36.6%
CD71+ (Vg9+ cells) [1]: 97.4%
Granzyme B (Luminex, supernatant) [1]: 4850
IFNγ (Luminex, supernatant) [1]: 1240
IL6 (Luminex, supernatant) [1]: 304
TNFα (Luminex, supernatant) [1]: 3960
Vg9 T cell % [1]: 9.6%
B1: VG9B128 (antibody, human IgG1, kappa)
heavy: EVQLVESGGGVVQPGKSLRLSCTASGFTFGTYGMHWVRQAPGKGLDWVAVIWYNGSNKYYADSVKGRFTISRDNSKNTLYLQMNSLRTEDTAVYYCARGGFGESFDSWGQGTLVTVSS[human IgG1 constant region omitted here]
light: DIVMTQTPATLSLSPGERATLSCRASQSVIDYLAWFQQKPGQAPRLLIYDASNRATGIPARFSGSGSGTDFTLTISSLEPEDFAVYYCQQRSNWPLTFGGGTKVEIKRTVAAPSVFIFPPSDEQLKSGTASVVCLLNNFYPREAKVQWKVDNALQSGNSQESVTEQDSKDSTYSLSSTLTLSKADYEKHKVYACEVTHQGLSSPVTKSFNRGEC

CD25+ (Vg9+ cells) [1]: 16.4%
CD71+ (Vg9+ cells) [1]: 73.4%
Granzyme B (Luminex, supernatant) [1]: 305
IFNγ (Luminex, supernatant) [1]: 36
IL6 (Luminex, supernatant) [1]: 94
TNFα (Luminex, supernatant) [1]: 192
Vg9 T cell % [1]: 3.6%
B2: VG9B129 (antibody, human IgG1, kappa)
heavy: B4 heavy with M114T
light: [about 100 residues omitted here][about 120 residues omitted here]
